In PubChem BioAssay AID330 (DTP/NCI, 2004):
Several values for one entry are separate records, joined by “and”; a condition that tells them apart may be missing. Equal entries are not always repeated. Further values from the same series stand in other lists. Inconclusive results and toxic doses are left out.

Tested on: P388 leukemia ip, CD2F1 mice, survival T/C
Assay: NCI In Vivo Anticancer Drug Screen. Data for tumor model P388 Leukemia (intraperitoneal) in CD2F1 (CDF1) mice
Settings: endpoint: median survival time, higher = longer survival
In short: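 Mice carrying the transplanted tumor received test compound or vehicle. Survival was recorded in each group, and the value is the treated-group measurement divided by that of the vehicle-treated control group.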

SMILES | T/C (dose: 0.06 mg/kg/injection, schedule: Q01DX009 (ip), vehicle: saline) | T/C (dose: 0.1 mg/kg/injection, schedule: Q01DX009 (ip), vehicle: water) | T/C (dose: 0.13 mg/kg/injection, schedule: Q01DX005 (ip), vehicle: saline) | T/C (dose: 0.13 mg/kg/injection, schedule: Q01DX009 (ip), vehicle: water) | T/C (dose: 0.2 mg/kg/injection, schedule: Q01DX009 (ip), vehicle: other) | T/C (dose: 0.25 mg/kg/injection, schedule: Q01DX009 (ip), vehicle: clinical formulation) | T/C (dose: 0.25 mg/kg/injection, schedule: Q04DX003 (ip), vehicle: saline) | T/C (dose: 0.3 mg/kg/injection, schedule: Q01DX009 (ip), vehicle: water) | T/C (dose: 0.5 mg/kg/injection, schedule: Q01DX005 (ip), vehicle: saline) | T/C (dose: 0.5 mg/kg/injection, schedule: Q01DX009 (ip), vehicle: clinical formulation) | T/C (dose: 0.5 mg/kg/injection, schedule: Q08DX002 (ip), vehicle: saline) | T/C (dose: 0.8 mg/kg/injection, schedule: Q01DX009 (ip), vehicle: other) | T/C (dose: 1.0 mg/kg/injection, schedule: Q01DX009 (ip), vehicle: saline) | T/C (dose: 1.0 mg/kg/injection, schedule: Q04DX003 (ip), vehicle: saline) | T/C (dose: 9.0 mg/kg/injection, schedule: Q01DX009 (ip), vehicle: saline) | T/C (dose: 10.0 mg/kg/injection, schedule: Q01DX009 (ip), vehicle: saline) | T/C (dose: 12.0 mg/kg/injection, schedule: Q01DX009 (ip), vehicle: saline) | T/C (dose: 16.0 mg/kg/injection, schedule: Q01DX005 (ip), vehicle: water) | T/C (dose: 20.0 mg/kg/injection, schedule: Q01DX009 (ip), vehicle: saline)
CO[C@H](C(=O)[C@@H](O)[C@@H](C)O)[C@@H]1Cc2cc3cc(OC4CC(OC5CC(O)C(O)C(C)O5)C(O)C(C)O4)c(C)c(O)c3c(O)c2C(=O)[C@H]1OC1CC(OC2CC(OC3CC(C)(O)C(O)C(C)O3)C(O)C(C)O2)C(O)C(C)O1 (some centres undefined) | 91 % of control | 122 % of control | 121 % of control | 122 % of control and 96 % of control | 123 % of control | 122 % of control | 122 % of control | 94 % of control | 156 % of control | 96 % of control | 122 % of control | 56 % of control | 151 % of control | 95 % of control | – | – | – | – | –
N[C@H](C(=O)O)[C@@H]1CC(Cl)=NO1 | – | – | – | – | – | – | – | – | – | – | – | – | – | – | 90 % of control | 94 % of control | 86 % of control | 93 % of control | 83 % of control
